# Source: article PMC10668032
# The other results are listed elsewhere or left out. At the low end of the ranking the order means little.
# Target: SIX1 homeodomain (reference allele) (UniProt Q15475)
# Experiment: universal protein binding microarray
# Conditions: Universal all-10-mer PBM (8x60K, AMADID 030236), 300 nM GST-tagged protein, Alexa Fluor 488 anti-GST; buffer, salt, pH and temperature not stated; high values mean tight binding; most listed sequences are background and not binding sites; double strand, one strand shown
row,Sequence,binding signal [E-score]
1,CGAGATCC,0.325
2,ACAGAATA,0.0822
3,AATGATGG,0.0261
4,ATATCCAA,0.358
5,CGACTTGA,-0.0299
6,GAGTGAAC,-0.125
7,GGCGCGCC,-0.25
8,AAAGTGAC,-0.193
9,ATCCGGGA,0.295
10,GACTTAAC,-0.384
11,AGAGTGCG,-0.152
12,ACTCACCC,-0.0761
13,CGGAAACA,-0.0392
14,CTAAGATA,0.241
15,GTCACCAA,-0.115
16,AATACCAC,0.33
17,CGTAAAAC,-0.0435
18,ACGGTCTA,-0.108
19,GCACGGGA,-0.0887
20,ATCTACAC,0.221
21,AGGGGTCG,0.0957
22,AGTAACGC,-0.357
23,ATGCTAGG,0.054
24,CAAGCTGA,-0.0652
25,GAAGGTTA,-0.056

row,Sequence,binding signal [E-score]
1,GAGTATCA,0.47
2,CGCTAGGA,0.0482
3,CGCTGCCC,-0.0948
4,CTACTACA,-0.0526
5,TTACGGAA,-0.0871
6,AAGGACAC,0.11
7,GGATTACA,0.18
8,CGATGGAC,-0.0215
9,GAGATAAA,0.0356
10,CTCGAGCC,0.0489
11,ACCCGGAT,0.411
12,TACACATA,0.289
13,GCATATCC,0.391
14,GGATCAGA,0.414
15,AATTGGGT,0.0144
16,ATGCGCGC,-0.00946
17,ATCGCCCA,0.197
18,TACCTAGA,0.232
19,AGGGATGA,0.176
20,AATCTATC,0.0686
21,ACTACTTC,-0.0404
22,GCCCAACA,-0.174
23,TACCAGAA,0.0693
24,ACGAGCCA,0.025
25,AACGTCAT,-0.0961

row,Sequence,binding signal [E-score]
1,AAGAGAAC,-0.0129
2,CAGACTGC,-0.281
3,CAAATTGC,-0.23
4,AGGATTGC,0.066
5,GGGAGATA,0.334
6,AAGATCCG,0.312
7,AGATCATG,0.295
8,ATATCTTA,0.345
9,GGTTCGAA,-0.072
10,ACCTACAT,-0.0597
11,ATGGGCGA,0.0869
12,CGATGCCA,-0.0713
13,CAGCCCCC,-0.204
14,GCGGCGGA,0.0131
15,AGTTACTG,-0.111
16,ATGCACGG,-0.163
17,TTGAGAAA,-0.0364
18,CACGCGGA,-0.0544
19,CGCCTTCA,-0.199
20,CACTCGTA,-0.0847
21,CATCTGCG,0.00218
22,AAGACTCT,-0.206
23,TATGGCCA,0.0383
24,CCAGCGGA,0.0384
25,AGACAGTC,-0.165

row,Sequence,binding signal [E-score]
1,CACAACGA,-0.0911
2,ACCCAAGC,0.0606
3,CACCCAAC,-0.152
4,CCCAATCC,0.0899
5,CAGCTGGC,-0.283
6,ATTAAACC,0.174
7,CTACAGTC,-0.262
8,ACTAGCCA,-0.0336
9,CCATGGAG,0.0552
10,ATTAGGCG,-0.0513
11,ATTTAGCA,-0.202
12,AGTTAACT,-0.281
13,ACGGACCT,0.00716
14,CCAGTGAA,-0.154
15,CCTTTGTA,-0.079
16,ACGTGAAT,-0.132
17,GCGCTCAC,-0.0938
18,GCTTCGAA,-0.134
19,TCATTTCA,-0.0112
20,AGCACAAC,-0.0359
21,CAATCTAG,0.14
22,ATAACGCG,0.00783
23,AGCATGCA,-0.0457
24,CAATTCAG,-0.0584
25,ATGGTCCC,-0.209

row,Sequence,binding signal [E-score]
1,CAATCCCA,0.177
2,CTGATGAA,-0.241
3,AGGCTTAA,-0.125
4,GGTCGAAA,-0.16
5,CCGATAGG,0.348
6,CCCAGGGA,-0.0532
7,CAGTATGA,0.151
8,AAGCACTA,0.0431
9,CAAGCCTC,-0.335
10,CCATCTAG,0.11
11,ACTTGTGC,-0.215
12,AGCGTCAG,-0.138
13,CTTGACGA,-0.152
14,ACAAAAAG,-0.0645
15,AAAATTTT,-0.259
16,GGACATAA,-0.1
17,TCCAGCGA,-0.0877
18,GGCCCGGA,-0.0237
19,AAGTTCAT,-0.239
20,CACGCGTG,-0.00775
21,GCTAGGCC,-0.0661
22,CCATCCCC,0.203
23,GCAGTCGA,-0.143
24,ACTAAAAT,-0.251
25,AGTCAGTC,-0.156

row,Sequence,binding signal [E-score]
1,ATAAAACA,-0.0822
2,GAATTAGA,-0.175
3,GGCTAACC,-0.176
4,ACGCGTAG,-0.0632
5,AGGACCAA,-0.259
6,TACGATCA,0.199
7,ACTGCGAC,-0.28
8,ACTTCGGA,-0.0775
9,AGATTGGC,-0.116
10,AGTCTAAG,-0.0949
11,ATTGTGAA,-0.0689
12,CCCTGGGA,0.00666
13,GCGTTTCA,-0.234
14,GAATCCAC,-0.04
15,ATGCGAGA,-0.0296
16,AACTTACT,-0.241
17,CTTCTTAA,-0.0167
18,CCCCTTTC,0.00262
19,ACTGCATA,0.0624
20,TAACTCTA,-0.0912
21,CGATAATC,0.128
22,TCCAACAA,-0.107
23,AACGTTTG,-0.22
24,CTACAAAC,-0.0882
25,CAATTCGG,-0.177

row,Sequence,binding signal [E-score]
1,ATACTCGC,0.34
2,GGATTGTA,0.162
3,TCTCTACA,0.0832
4,AAAAGTCC,-0.231
5,AAAACGTT,-0.236
6,CTAGACGC,0.126
7,GCTTAGAA,-0.0868
8,CATTACAC,0.122
9,ACGTTCGA,-0.19
10,CGCAGATA,0.29
11,AGTAGAGC,-0.00523
12,ACTTCACA,0.0242
13,ATCCCGGC,0.173
14,AGTGATAC,0.489
15,ACACAACC,-0.215
16,CAGAGCTA,-0.127
17,GCACAGCA,-0.15
18,ACGGTACT,0.082
19,CAGTTAGG,0.00951
20,AGGTTGTG,-0.256
21,ACTTTGTG,-0.122
22,CTAAAAGC,-0.163
23,CTTTTCAC,-0.112
24,GGTATACA,0.384
25,CCAACTTC,-0.0314

row,Sequence,binding signal [E-score]
1,GGGTCGGA,0.155
2,GTACTTGA,0.0189
3,CACCTTGC,0.0478
4,GAGTCTCC,-0.182
5,AGCATATC,0.408
6,ACTAAAGA,-0.137
7,GGAGATGA,0.116
8,AAGTTCCG,-0.223
9,AGGTAAAC,-0.0937
10,CAACTAAG,-0.17
11,GCTTTTAC,-0.144
12,CCTCCAGC,-0.00404
13,AAGGTATC,0.472
14,AGCTCGAT,0.227
15,ATATTGGG,0.219
16,AGCGCAAC,-0.121
17,AACTGCGA,-0.204
18,AAAAGGAT,0.163
19,ATATGGTC,0.277
20,GCCACGCA,-0.0518
21,CAGACTAA,-0.193
22,CGATACGC,0.434
23,GGGCGCCC,0.0141
24,CCTTTGCG,0.0492
25,CCTTCGAA,-0.234

row,Sequence,binding signal [E-score]
1,CACAGTAA,-0.103
2,AGAACCAG,0.0696
3,AAACGGAT,0.364
4,ACTCGTCT,0.0382
5,GGCGTTTA,-0.096
6,AACCTGAC,-0.182
7,TAAAGACA,-0.211
8,AGAGCGGC,-0.194
9,ATGGTAAC,0.14
10,ACGCCCAG,-0.0061
11,ATTTCCCA,-0.117
12,CGTTTAAC,-0.216
13,CCGCTAAA,-0.24
14,TCGATCGA,-0.076
15,ACCTCGAA,-0.122
16,CTGAACCC,0.0238
17,CGTCCTTA,-0.105
18,ATTACCGC,0.0243
19,GTGTAATA,0.267
